Assay results reported in the supplement of paper PMC8728848.
Some of the results follow.

Legend:
Test in all cases: glycan array binding signal (z-score within array); higher = stronger binding
Settings in all cases: glycan notation: IUPAC condensed, linker removed
[1] = molecular target: Gal(b1-3)GlcNAc(b1-2)Man(a1-3)[Gal(b1-3)GlcNAc(b1-2)Man(a1-6)]Man(b1-4)GlcNAc(b1-4)[Fuc(a1-6)]GlcNAc
In short: (§1)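 Negative Z-scores can be read as non-binding. The Z-score is calculated within each array and then averaged across arrays of one protein sequence at different concentrations or buffers and across linkers. Arrays, 3228 in all, were curated from the Consortium for Functional Glycomics database and kept only where the protein sequence was available.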

[2] = molecular target: Gal(b1-3)GlcNAc(b1-2)Man(a1-3)[GlcNAc(b1-4)][Gal(b1-3)GlcNAc(b1-2)Man(a1-6)]Man(b1-4)GlcNAc(b1-4)GlcNAc
In short: as §1

[3] = molecular target: Gal(b1-3)GlcNAc(b1-2)[Gal(b1-3)GlcNAc(b1-6)]Man(a1-6)[Gal(b1-3)GlcNAc(b1-2)Man(a1-3)]Man(b1-4)GlcNAc(b1-4)GlcNAc
In short: as §1

[4] = molecular target: Gal(b1-3)GlcNAc(b1-3)Gal(b1-3)GlcNAc
In short: as §1

[5] = molecular target: Gal(b1-3)GlcNAc(b1-3)Gal(b1-4)Glc
In short: as §1

[6] = molecular target: Gal(b1-3)GlcNAc(b1-3)Gal(b1-4)GlcNAc
In short: as §1

[7] = molecular target: Gal(b1-3)GlcNAc(b1-3)Gal(b1-4)GlcNAc(b1-2)Man(a1-3)[Gal(b1-3)GlcNAc(b1-3)Gal(b1-4)GlcNAc(b1-2)Man(a1-6)]Man(b1-4)GlcNAc(b1-4)GlcNAc
In short: as §1

[8] = molecular target: Gal(b1-3)GlcNAc(b1-3)Gal(b1-4)GlcNAc(b1-2)[Gal(b1-3)GlcNAc(b1-3)Gal(b1-4)GlcNAc(b1-6)]Man(a1-6)[Gal(b1-3)GlcNAc(b1-3)Gal(b1-4)GlcNAc(b1-2)Man(a1-3)]Man(b1-4)GlcNAc(b1-4)[Fuc(a1-6)]GlcNAc
In short: as §1

[9] = molecular target: Gal(b1-3)GlcNAc(b1-3)Gal(b1-4)GlcNAc(b1-3)Gal(b1-4)GlcNAc(b1-2)[Gal(b1-3)GlcNAc(b1-3)Gal(b1-4)GlcNAc(b1-3)Gal(b1-4)GlcNAc(b1-6)]Man(a1-6)[Gal(b1-3)GlcNAc(b1-3)Gal(b1-4)GlcNAc(b1-3)Gal(b1-4)GlcNAc(b1-2)Man(a1-3)]Man(b1-4)GlcNAc(b1-4)[Fuc(a1-6)]GlcNAc
In short: as §1

[10] = molecular target: Gal(b1-3)GlcNAc(b1-3)Gal(b1-4)GlcNAc(b1-6)[Gal(b1-3)GlcNAc(b1-3)]Gal(b1-4)Glc
In short: as §1

[11] = molecular target: Gal(b1-3)GlcNAc(b1-3)Gal(b1-4)[Fuc(a1-3)]GlcNAc
In short: as §1

[12] = molecular target: Gal(b1-3)GlcNAc(b1-3)Gal(b1-4)[Fuc(a1-3)]GlcNAc(b1-6)[Gal(b1-3)GlcNAc(b1-3)]Gal(b1-4)Glc
In short: as §1

[13] = molecular target: Gal(b1-3)GlcNAc(b1-3)GalNAc
In short: as §1

[14] = molecular target: Gal(b1-3)GlcNAc(b1-6)Gal(b1-4)GlcNAc
In short: as §1

[15] = molecular target: Gal(b1-3)GlcNAc(b1-6)GalNAc
In short: as §1

[16] = molecular target: Gal(b1-3)GlcNAc(b1-6)[Gal(b1-3)]GalNAc
In short: as §1

Gal(b1-3)GlcNAc6S = molecular target: Gal(b1-3)GlcNAc6S
In short: as §1

[17] = molecular target: Gal(b1-3)[Fuc(a1-4)]GlcNAc
In short: as §1

[18] = molecular target: Gal(b1-3)[Fuc(a1-4)]GlcNAc(b1-2)Man
In short: as §1

[19] = molecular target: Gal(b1-3)[Fuc(a1-4)]GlcNAc(b1-2)Man(a1-3)[Gal(b1-3)[Fuc(a1-4)]GlcNAc(b1-2)Man(a1-6)]Man(b1-4)GlcNAc(b1-4)[Fuc(a1-6)]GlcNAc
In short: as §1

[20] = molecular target: Gal(b1-3)[Fuc(a1-4)]GlcNAc(b1-3)Gal(b1-3)[Fuc(a1-4)]GlcNAc
In short: as §1

[21] = molecular target: Gal(b1-3)[Fuc(a1-4)]GlcNAc(b1-3)Gal(b1-4)[Fuc(a1-3)]GlcNAc
In short: as §1

[22] = molecular target: Gal(b1-3)[Fuc(a1-4)]GlcNAc(b1-6)GalNAc
In short: as §1

[23] = molecular target: Gal(b1-3)[GlcNAc(b1-6)]GalNAc
In short: as §1

[24] = molecular target: Gal(b1-3)[Neu5Ac(a2-6)]GalNAc
In short: as §1

[25] = molecular target: Gal(b1-3)[Neu5Ac(a2-6)]GlcNAc(b1-4)Gal(b1-4)Glc
In short: as §1

[26] = molecular target: Gal(b1-3)[Neu5Ac(b2-6)]GalNAc
In short: as §1

Gal(b1-4)Gal = molecular target: Gal(b1-4)Gal
In short: as §1

[27] = molecular target: Gal(b1-4)GalNAc(a1-3)[Fuc(a1-2)]Gal(b1-4)GlcNAc
In short: as §1

[28] = molecular target: Gal(b1-4)GalNAc(b1-3)[Fuc(a1-2)]Gal(b1-4)GlcNAc
In short: as §1

Gal(b1-4)Glc = molecular target: Gal(b1-4)Glc
In short: as §1

Gal(b1-4)Glc6S = molecular target: Gal(b1-4)Glc6S
In short: as §1

Gal(b1-4)GlcNAc = molecular target: Gal(b1-4)GlcNAc
In short: as §1

[29] = molecular target: Gal(b1-4)GlcNAc(a1-6)Gal(b1-4)GlcNAc
In short: as §1

Gal(b1-4)GlcNAc(b1-2)Man = molecular target: Gal(b1-4)GlcNAc(b1-2)Man
In short: as §1

[30] = molecular target: Gal(b1-4)GlcNAc(b1-2)Man(a1-3)Man(b1-4)GlcNAc(b1-4)GlcNAc
In short: as §1

[31] = molecular target: Gal(b1-4)GlcNAc(b1-2)Man(a1-3)[Gal(b1-4)GlcNAc(b1-2)Man(a1-6)]Man(b1-4)GlcNAc(b1-4)GlcNAc
In short: as §1

[32] = molecular target: Gal(b1-4)GlcNAc(b1-2)Man(a1-3)[Gal(b1-4)GlcNAc(b1-2)Man(a1-6)]Man(b1-4)GlcNAc(b1-4)[Fuc(a1-6)]GlcNAc
In short: as §1

[33] = molecular target: Gal(b1-4)GlcNAc(b1-2)Man(a1-3)[Gal(b1-4)GlcNAc(b1-2)Man(a1-6)][Gal(b1-4)GlcNAc(b1-4)]Man(b1-4)GlcNAc(b1-4)[Fuc(a1-6)]GlcNAc
In short: as §1

[34] = molecular target: Gal(b1-4)GlcNAc(b1-2)Man(a1-3)[Gal(b1-4)GlcNAc(b1-2)Man(a1-6)][GlcNAc(b1-4)]Man(b1-4)GlcNAc(b1-4)[Fuc(a1-6)]GlcNAc
In short: as §1

[35] = molecular target: Gal(b1-4)GlcNAc(b1-2)Man(a1-3)[GlcNAc(b1-2)Man(a1-6)]Man(b1-4)GlcNAc(b1-4)GlcNAc
In short: as §1

[36] = molecular target: Gal(b1-4)GlcNAc(b1-2)Man(a1-3)[GlcNAc(b1-4)][Gal(b1-4)GlcNAc(b1-2)Man(a1-6)]Man(b1-4)GlcNAc(b1-4)GlcNAc
In short: as §1

[37] = molecular target: Gal(b1-4)GlcNAc(b1-2)Man(a1-3)[Man(a1-6)]Man(b1-4)GlcNAc(b1-4)GlcNAc
In short: as §1

[38] = molecular target: Gal(b1-4)GlcNAc(b1-2)Man(a1-6)Man(b1-4)GlcNAc(b1-4)GlcNAc
In short: as §1

[39] = molecular target: Gal(b1-4)GlcNAc(b1-2)Man(a1-6)[GlcNAc(b1-2)Man(a1-3)]Man(b1-4)GlcNAc(b1-4)GlcNAc
In short: as §1

B1: diCBM40 CPF071 (Clostridium perfringens) (protein)
chain: MAHHHHHHVGTGSNDDDDKSPDPMLSSLGEYKDINLESSNASNITYDLEKYKNLDEGTIVVRFNSKDSKIQSLLGISNSKTKNGYFNFYVTNSRVGFELRNQKNEGNTQNGTENLVHMYKDVALNDGDNTVALKIEKNKGYKLFLNGKMIKEVKDTNTKFLNNIENLDSAFIGKTNRYGQSNEYNFKGNIGFMNIYNEPLGDDYLLSKTGETKALNGSELGSGSGLSSLGEYKDINLESSNASNITYDLEKYKNLDEGTIVVRFNSKDSKIQSLLGISNSKTKNGYFNFYVTNSRVGFELRNQKNEGNTQNGTENLVHMYKDVALNDGDNTVALKIEKNKGYKLFLNGKMIKEVKDTNTKFLNNIENLDSAFIGKTNRYGQSNEYNFKGNIGFMNIYNEPLGDDYLLSKTGETK
glycan array binding signal (z-score) [1]: -0.233
glycan array binding signal (z-score) [2]: -0.26
glycan array binding signal (z-score) [3]: -0.337
glycan array binding signal (z-score) [4]: -0.294
glycan array binding signal (z-score) [5]: -0.345
glycan array binding signal (z-score) [6]: -0.346
glycan array binding signal (z-score) [7]: -0.313
glycan array binding signal (z-score) [8]: -0.108
glycan array binding signal (z-score) [9]: 0.504
glycan array binding signal (z-score) [10]: -0.337
glycan array binding signal (z-score) [11]: -0.329
glycan array binding signal (z-score) [12]: -0.341
glycan array binding signal (z-score) [13]: -0.256
glycan array binding signal (z-score) [14]: -0.332
glycan array binding signal (z-score) [15]: -0.269
glycan array binding signal (z-score) [16]: -0.214
glycan array binding signal (z-score) (Gal(b1-3)GlcNAc6S): -0.315
glycan array binding signal (z-score) [17]: -0.33
glycan array binding signal (z-score) [18]: -0.096
glycan array binding signal (z-score) [19]: -0.207
glycan array binding signal (z-score) [20]: -0.31
glycan array binding signal (z-score) [21]: -0.238
glycan array binding signal (z-score) [22]: -0.151
glycan array binding signal (z-score) [23]: -0.302
glycan array binding signal (z-score) [24]: 0.025
glycan array binding signal (z-score) [25]: -0.182
glycan array binding signal (z-score) [26]: -0.289
glycan array binding signal (z-score) (Gal(b1-4)Gal): -0.153
glycan array binding signal (z-score) [27]: -0.33
glycan array binding signal (z-score) [28]: -0.349
glycan array binding signal (z-score) (Gal(b1-4)Glc): -0.329
glycan array binding signal (z-score) (Gal(b1-4)Glc6S): -0.085
glycan array binding signal (z-score) (Gal(b1-4)GlcNAc): -0.318
glycan array binding signal (z-score) [29]: -0.304
glycan array binding signal (z-score) (Gal(b1-4)GlcNAc(b1-2)Man): -0.337
glycan array binding signal (z-score) [30]: -0.331
glycan array binding signal (z-score) [31]: -0.308
glycan array binding signal (z-score) [32]: -0.309
glycan array binding signal (z-score) [33]: -0.322
glycan array binding signal (z-score) [34]: -0.322
glycan array binding signal (z-score) [35]: -0.306
glycan array binding signal (z-score) [36]: -0.28
glycan array binding signal (z-score) [37]: -0.257
glycan array binding signal (z-score) [38]: -0.328
glycan array binding signal (z-score) [39]: -0.319
